According to paper PMC10691697, “A small molecule exerts selective antiviral activity by targeting the human cytomegalovirus nuclear egress complex” (PLOS Pathogens, 2023):

Assays:
Assay in all cases: biochemical
Assay type in all cases: binding
UL50_C79S+UL53 = target: T1, UL50_C79S+UL53 (Human cytomegalovirus, UniProt P16794); conditions: 3.13 μM compound, replicates, read-out: normalized FRET signal relative to control without inhibitor
T1 construct: GST (N, cleaved yes); 13-residue glycine-serine linker […]; made in house; host or cells: E. coli BL21 (DE3) RIPL

HCMV UL50-UL53 = target: T2, HCMV UL50-UL53 (Human cytomegalovirus, UniProt P16794); conditions: WT UL50-UL53; 3.13 μM compound; replicates
T2 construct: GST (N, cleaved yes); 13-residue glycine-serine linker […]; made in house; host or cells: E. coli BL21 (DE3) RIPL

UL50_C54S+UL53 = target: T3, UL50_C54S+UL53 (Human cytomegalovirus, UniProt P16794); conditions: 3.13 μM compound, replicates, read-out: normalized FRET signal relative to control without inhibitor
T3 construct: GST (N, cleaved yes); 13-residue glycine-serine linker […]; made in house; host or cells: E. coli BL21 (DE3) RIPL

Compound: C=CC(=O)Nc1cccc(Oc2ccnc3[nH]ccc23)c1 [GK2]
- remaining activity at 3.13 µM (UL50_C79S+UL53): 100%
- normalized FRET signal relative to control without inhibitor (HCMV UL50-UL53): 92.0000
- remaining activity at 3.13 µM (UL50_C54S+UL53): 98%
